Patent publication US12582619B2 (priority 2020, dated 2026)

Columns and labels:
SARS-CoV-2 Spike protein [1] = system: SARS-CoV-2 Spike protein
SARS-CoV-2 Spike protein [2] = settings: Vero E6 lysates, 10 μM, FIG. 7

Compound	SARS-CoV-2 Spike protein level (SARS-CoV-2 Spike protein [1])	Spike protein level (SARS-CoV-2 Spike protein [2])
N=C(NCCCOc1ccc(F)cc1)Nc1ccc(Cl)cc1 [CT189]	striking decrease	
COc1cc(NC(=N)NCCC(C)(C)c2ccc(C(F)(F)F)cc2)ncc1C#N [Compound F, 1-(5-cyano-4-methoxypyridin-2-yl)-3-(3-methyl-3-(4-(trifluoromethyl)phenyl)butyl)guanidine]	striking decrease	clear decrease
COC(=O)c1ccc(NC(=N)NCC(C)(C)COc2ccc(C(F)(F)F)cc2)nc1 [Compound H, methyl 6-(3-(2,2-dimethyl-3-(4-(trifluoromethyl)phenoxy)propyl)guanidino)nicotinate]	striking decrease	
Cc1cc(OCCN2CCOCC2)nn1-c1ccc2ccccc2c1 [Compound S1RA, 4-[2-[[5-methyl-1-(2-naphthalenyl)-1H-pyrazol-3-yl]oxy]ethyl]morpholine, reference compound]	did not	
N=C(Nc1ccc(I)cc1)NC1C2CC3CC(C2)CC1C3 (stereo not drawn) [IPAG, reference compound]	striking decrease	
